Source: the supplement of paper PMC3334620
The full ranking holds about 33,000 sequences; the median of “E-score (-0.5 to 0.5)” is about -0.041, and the highest 2% start at about 0.37. Some of the results follow.

Biological target: T1, Ecm22 (UniProt Q05958)
T1 sequence: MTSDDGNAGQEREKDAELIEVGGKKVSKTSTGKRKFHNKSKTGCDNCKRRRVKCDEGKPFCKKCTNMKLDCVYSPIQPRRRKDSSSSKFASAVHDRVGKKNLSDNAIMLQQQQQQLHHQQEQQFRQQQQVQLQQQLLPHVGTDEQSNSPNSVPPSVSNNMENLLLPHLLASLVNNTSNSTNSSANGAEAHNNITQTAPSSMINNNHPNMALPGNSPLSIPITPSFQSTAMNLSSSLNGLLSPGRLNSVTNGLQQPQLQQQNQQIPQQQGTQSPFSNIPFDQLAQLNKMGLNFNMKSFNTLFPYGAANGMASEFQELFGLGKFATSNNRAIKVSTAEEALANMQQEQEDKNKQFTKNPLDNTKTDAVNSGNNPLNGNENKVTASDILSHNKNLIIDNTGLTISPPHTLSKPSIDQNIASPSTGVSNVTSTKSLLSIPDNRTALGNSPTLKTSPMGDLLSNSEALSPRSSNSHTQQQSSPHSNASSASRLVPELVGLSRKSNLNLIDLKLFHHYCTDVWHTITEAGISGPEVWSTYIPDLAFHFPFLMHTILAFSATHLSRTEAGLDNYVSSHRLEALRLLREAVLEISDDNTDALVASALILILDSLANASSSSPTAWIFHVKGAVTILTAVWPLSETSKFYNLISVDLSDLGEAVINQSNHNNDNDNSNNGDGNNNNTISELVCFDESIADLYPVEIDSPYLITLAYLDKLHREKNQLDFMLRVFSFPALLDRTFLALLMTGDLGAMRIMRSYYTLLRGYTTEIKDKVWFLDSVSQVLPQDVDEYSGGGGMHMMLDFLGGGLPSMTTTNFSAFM
Assay: PBM E-score (8-mer binding enrichment) (E-score (-0.5 to 0.5)); higher = stronger / more preferred TF binding; most listed sequences are background and not binding sites
Details: protein concentration: 200 nM; construct: GST-full length
Summary of the method: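 Universal all-10-mer Agilent arrays, fresh or stripped once, were converted to double-stranded form by primer extension. GST-tagged yeast transcription factors from PURExpress in vitro transcription/translation, full-length or DNA-binding domain only, were applied at about 100-200 nM and detected with fluorescent anti-GST. After masliner normalisation, the Universal PBM Analysis Suite scored each ungapped eight-base word together with its reverse complement by E-score.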

Sequence | PBM E-score
GGAGATAC | -0.00238
AACGCATT | 0.0189
AGTCATCA | -0.149
ATCGACTC | 0.0508
CGTCGCAG | 0.126
AGCCCAAC | -0.147
GGACATTA | -0.088
GGATGGTA | -0.0324
ACGTAACC | 0.0905
CCCGGTGA | -0.206
CAATGATG | -0.141
TGACCGAA | 0.203
ATGGGTAG | -0.0273
CATAAGAC | 0.00296
AAACCAAA | 0.0602
ACTGTAAA | -0.0485
GAACTTGC | -0.0845
CTTCGATA | 0.121
GAGGATTA | -0.0868
GCCGACAC | -0.17
ACCCGGAG | 0.114
GCAGCACA | -0.197
GGCAGTAA | -0.0106
CGGGGGTA | -0.11
AGTGTGCC | -0.185

Sequence | PBM E-score
CCCGAAAA | 0.0691
AATGCTGT | -0.155
CACGCTTA | -0.00771
AGGCTAAT | -0.00957
CATGTACC | -0.118
GCCTGCCA | -0.285
CCAAAACC | 0.021
AGCCAGCC | -0.0617
GTCAACAA | -0.0801
AAATAGTA | 0.0746
ACTGTCTG | -0.221
GGTCACCA | -0.156
CCGTACTC | 0.224
CTATCGAG | 0.014
ACCAACAT | 0.0381
CTGTGTAC | 0.236
AGTTATCG | 0.218
AAGCTAAT | 0.0924
CGTGGGGC | -0.213
GCCGCCTA | -0.348
CAGGTGAA | -0.0473
CAGATCCA | -0.2
CCAGCGAA | -0.112
AAAGGGCC | -0.338
CTGGGAAG | -0.0875

Sequence | PBM E-score
ATTGGCGC | -0.0775
CAAATGTC | -0.088
TCATTTCA | -0.0478
CTGAGAAC | 0.093
GGGGTATA | -0.185
GGACAAAA | -0.0932
CGGCATTC | -0.0261
AGCCCACA | -0.193
ACATGGAC | -0.199
ATGCACCC | -0.058
CACTCGAC | -0.0826
TAATCTCA | 0.05
GCTTGCAA | -0.091
ACGGGCTA | 0.0937
CTTCTGAA | -0.201
ATAGGTAG | -0.151
AAGTTAAA | -0.0767
ACATGGCG | -0.0545
CCGCGACG | 0.0789
AAAAAGAG | -0.158
CGGGACGA | 0.00175
ACTTAAGC | 0.0561
GGAATGGA | -0.258
CCAGGGCC | -0.354
AAGTCCAG | -0.111

Sequence | PBM E-score
GCGAATAA | 0.153
AGACCGAG | 0.155
ACGATAAG | 0.193
AATTCTAC | 0.0698
TAGAGCGA | 0.211
TACGAAAA | 0.423
ACTAAAAC | -0.0475
AGCTGTCC | -0.207
AGAGTTTG | -0.119
TACGCCTA | -0.0425
GGGTGTCA | -0.183
AATAATGC | 0.202
CGGCAACA | 0.00962
CCCCGACC | -0.0419
AAACCTGC | -0.0823
CGTCACCA | -0.137
GTTCGCCA | 0.067
GCCCGCAA | -0.0102
AAAGGACT | -0.209
ACGTTTCG | 0.247
ACAGATAT | 0.0648
AAACTAAG | -0.0282
CATCAAAA | 0.0123
GAATAGGA | 0.0429
ATCATCAT | 0.0455

Sequence | PBM E-score
CGGAGCAA | -0.163
CTCTTACA | -0.19
CGGATCTA | 0.0938
ACTCCCGC | -0.0572
ACACGCCA | -0.00397
ATGTAAAC | 0.199
CACCCTCC | -0.114
CAAAACAC | -0.184
TAACTACA | 0.00782
CTGCGCAA | 0.0516
CGATCCGA | 0.294
ACGTAGAG | -0.0231
CTGTATGA | -0.0474
AACGAGCT | 0.445
AAACCTTC | -0.172
CCCGACTC | 0.119
ATGAACTG | -0.0086
AGTGGAAG | -0.206
CCTCAGCG | -0.0433
GATTGTTA | 0.0402
CCAGTAGC | -0.0364
ACTCCCAC | -0.108
GATGGCCA | -0.163
TGATACAA | -0.102
GTGCGTTA | 0.103

Sequence | PBM E-score
ACCATTCT | -0.262
CACCCTGA | -0.319
GACAGGAA | -0.00773
AGTATCCA | 0.031
ATCAAGAA | -0.0539
AAGATGAA | -0.1
ACCCCTAT | -0.0517
CGACCTGC | -0.0223
GTCAACGA | 0.2
CAGTGTGA | -0.0937
CGATGTGC | 0.107
TAACGCCA | 0.0183
TGATTACA | -0.0514
AGCTACTG | -0.0991
ATGCCTAG | -0.204
CAACCTCC | -0.219
ACTACCAG | -0.0954
AGTCATGG | -0.179
CGTGTGGC | -0.0896
CTCACACC | -0.171
AATAAAGT | -0.101
AGAGAATG | 0.0385
TCTATCAA | -0.273
GCTATGCC | -0.186
CCCTGCTA | -0.179

Sequence | PBM E-score
ATCGCCAA | -0.229
GGGTCGCA | 0.183
ACCATGCG | 0.035
CATTGGTA | -0.116
ATGTCCTC | 4e-05
CGCCTATC | -0.00033
GCTCTTGA | -0.244
ACGACTAG | 0.194
CGCCCGCC | 0.00795
CACGACGC | 0.119
CATGGCGC | -0.137
ACGGGGCG | 0.214
ATCCATTA | -0.00138
AGATTTGC | -0.0658
CGCATCCG | 0.0561
ATACATCG | 0.0771
AACGCATG | 0.151
AGTGCAGA | -0.0276
AACAAGTT | -0.0507
AGGTCGTA | 0.458
ACTCCTCA | -0.116
AAAACCGC | -0.0889
